Reference: the supplement of paper PMC9151546
Repeats are few or missing, and single values can be far off.

Assays:
CHO-K1 [1] = test: micronucleus frequency (% of nucleated events); higher = more micronuclei (genotoxic)
CHO-K1 [2] = test: relative survival (nuclei to bead ratio vs DMSO control) (% of vehicle control); higher = more surviving cells
Experimental: (§1)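 Flow-cytometric in vitro micronucleus assay (Litron MicroFlow) in CHO-K1 cells in 96-well plates, 19 concentrations (4.5-200 µM, n=1 per concentration). Without S9, cells were exposed for 24 h and sampled at 48 h. With Aroclor 1254-induced rat liver S9, cells were exposed for 3-4 h and sampled at 27-28 h. Read-outs are %MN and %hypodiploid nuclei relative to nucleated events, and relative survival as the nuclei-to-bead ratio versus the 1% DMSO vehicle control (x100).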

CHO-K1 [3] = test: hypodiploid nuclei frequency (% of nucleated events); higher = more hypodiploid events (aneugenic)
Experimental: as §1
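Throughout, for hypodiploid nuclei frequency (% of nucleated events): hypodiploid nuclei gated on a flow cytometer with 488 nm excitation after SYTOX Green staining, cultures at 37 °C, positive controls vinblastine without S9 and cyclophosphamide with S9.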
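Throughout, for micronucleus frequency (% of nucleated events): cells lysed with nuclei stained by SYTOX Green, then micronucleus-gated events counted against nucleated events by flow cytometry with 488 nm excitation.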
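Throughout, for relative survival (nuclei to bead ratio vs DMSO control): Lysed-cell nuclei stained with SYTOX Green and counted against counting beads by flow cytometry at 488 nm excitation, with vinblastine (no S9) and cyclophosphamide (plus S9) as positive controls.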

ClCC(Cl)CCl [1,2,3-Trichloropropane]
Details	hypodiploid nuclei frequency, CHO-K1 [3] [%]	micronucleus frequency, CHO-K1 [1] [%]	relative survival, CHO-K1 [2]
concentration: 4.5 (µM), S9 metabolic activation: with S9, exposure time: 3-4 hours	0.12	1.12	116
concentration: 4.5 (µM), S9 metabolic activation: without S9, exposure time: 24 hours	0.5	0.98	120
concentration: 5.63 (µM), S9 metabolic activation: with S9, exposure time: 3-4 hours	0.14	0.94	101
concentration: 5.63 (µM), S9 metabolic activation: without S9, exposure time: 24 hours	0.7	1.12	123
concentration: 7.04 (µM), S9 metabolic activation: with S9, exposure time: 3-4 hours	0.22	0.8	110
concentration: 7.04 (µM), S9 metabolic activation: without S9, exposure time: 24 hours	0.72	1.36	110
concentration: 8.8 (µM), S9 metabolic activation: with S9, exposure time: 3-4 hours	0.22	0.64	96.7
concentration: 8.8 (µM), S9 metabolic activation: without S9, exposure time: 24 hours	0.92	0.98	97.6
concentration: 11 (µM), S9 metabolic activation: with S9, exposure time: 3-4 hours	0.26	0.98	113
concentration: 11 (µM), S9 metabolic activation: without S9, exposure time: 24 hours	1.02	1.24	104
concentration: 13.7 (µM), S9 metabolic activation: with S9, exposure time: 3-4 hours	0.1	0.84	100
concentration: 13.7 (µM), S9 metabolic activation: without S9, exposure time: 24 hours	0.9	1.26	118
concentration: 17.2 (µM), S9 metabolic activation: with S9, exposure time: 3-4 hours	0.36	0.84	98.5
concentration: 17.2 (µM), S9 metabolic activation: without S9, exposure time: 24 hours	0.82	1.02	113
concentration: 21.5 (µM), S9 metabolic activation: with S9, exposure time: 3-4 hours	0.28	1.1	94.8
concentration: 21.5 (µM), S9 metabolic activation: without S9, exposure time: 24 hours	0.74	1.06	117
concentration: 26.8 (µM), S9 metabolic activation: with S9, exposure time: 3-4 hours	0.22	0.68	105
concentration: 26.8 (µM), S9 metabolic activation: without S9, exposure time: 24 hours	0.86	1.42	111
concentration: 33.6 (µM), S9 metabolic activation: with S9, exposure time: 3-4 hours	0.14	1.4	84
concentration: 33.6 (µM), S9 metabolic activation: without S9, exposure time: 24 hours	0.72	1.3	87.3
concentration: 41.9 (µM), S9 metabolic activation: with S9, exposure time: 3-4 hours	0.18	0.9	78.1
concentration: 41.9 (µM), S9 metabolic activation: without S9, exposure time: 24 hours	1.12	1.8	83.9
concentration: 52.4 (µM), S9 metabolic activation: with S9, exposure time: 3-4 hours	0.18	1.06	107
concentration: 52.4 (µM), S9 metabolic activation: without S9, exposure time: 24 hours	1.16	1.92	91.4
concentration: 65.5 (µM), S9 metabolic activation: with S9, exposure time: 3-4 hours	0.2	1.06	76.5
concentration: 65.5 (µM), S9 metabolic activation: without S9, exposure time: 24 hours	0.96	1.26	78.3
concentration: 81.9 (µM), S9 metabolic activation: with S9, exposure time: 3-4 hours	0.2	0.98	89
concentration: 81.9 (µM), S9 metabolic activation: without S9, exposure time: 24 hours	1.3	1.48	70.9
concentration: 102 (µM), S9 metabolic activation: with S9, exposure time: 3-4 hours	0.14	0.96	91.7
concentration: 102 (µM), S9 metabolic activation: without S9, exposure time: 24 hours	1.12	1.3	83.6
concentration: 128 (µM), S9 metabolic activation: with S9, exposure time: 3-4 hours	0.32	0.8	101
concentration: 128 (µM), S9 metabolic activation: without S9, exposure time: 24 hours	1.7	1.38	78.8
concentration: 160 (µM), S9 metabolic activation: with S9, exposure time: 3-4 hours	0.32	1.44	71.3
concentration: 160 (µM), S9 metabolic activation: without S9, exposure time: 24 hours	1.82	1.62	77.3
concentration: 200 (µM), S9 metabolic activation: with S9, exposure time: 3-4 hours	0.22	1.18	75.2
concentration: 200 (µM), S9 metabolic activation: without S9, exposure time: 24 hours	1.92	2.06	82.3
